According to PubChem BioAssay AID1454 (National Center for Advancing Translational Sciences (NCATS), 2008):
About 550 (0.42%) of roughly 130,000 compounds were called active. The shares of active, inactive and inconclusive entries below differ from those in the screen. The call rests on the fitted dose curve; in most records, active means well fitted inhibition curve with a large enough effect; inconclusive means small, poorly fitted or top-dose-only effect, or effect the other way; inactive means flat fitted curve, though single readings scatter. Potencies of inconclusive entries are left out as doubtful fits.
Potency means the concentration at half of the fitted maximal effect; tags describe the fitted curve by direction and shape.

Assay: qHTS Assay for Inhibitors of the ERK Signaling Pathway using a Homogeneous Screening Assay; Stimulation with EGF; further: nearly all actives have a fitted effect of over 55% in size;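 on activity change, negative = inhibition: plate controls were stimulated vehicle wells for no effect and unstimulated vehicle basal for full effect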
Details: HEK293-V1b, EGF-stimulated phospho-ERK AlphaScreen; activity change, negative = inhibition: at the top concentration
In short: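 EGF-stimulated (25 nM, 5 min) phospho-ERK in HEK293 cells stably expressing V1b, cells pretreated 30 min with compound at 37C. Homogeneous AlphaScreen read on lysates.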
With `CC(=O)O[C@H](C(=O)O[C@@H]1C[C@@H](CCC[C@H]2O[C@H](C(=O)OC(C)C)CC[C@@H]2C)O[C@@H](CC#N)C1)c1ccccc1` the “activity change, negative = inhibition” value was inactive: 6.35%. In the case of `C=CCN1C(=O)/C(=C/c2ccc(O)cc2)S/C1=N/c1nccs1`, the Potency is reported as inconclusive [inhibitor, single point]. In the case of `C/C(=N\N1C(=O)c2ccccc2NC1c1ccccc1)c1ccccc1O` (stereo not drawn), the “activity change, negative = inhibition” value is reported as inactive: 3.79%. For `Cc1cc(NC(=O)CSc2nc3ccsc3c(=O)n2CCCC(=O)NCCc2ccccc2)no1`, the Potency was inconclusive [inhibitor, single point]. For `CS(=O)(=O)N1CCC2(CC1)CN(Cc1ccc(C#N)cc1)C2`, the “activity change, negative = inhibition” value was inactive: 2.26%. With `COc1ccccc1N1CCN(Cc2cn[nH]c2-c2ccc(F)cc2)CC1` the Potency was inconclusive [inhibitor, partial curve, poor fit]. For `C/C=C/c1ccc(OCCCCOc2ccccc2F)c(OC)c1`, the Potency was inconclusive [activator, single point]. For `Cc1ccc(C=C2C(=O)c3ccccc3C2=O)o1`, the Potency was inconclusive [inhibitor, partial curve]. With `Clc1ccc2c(c1)c1cc(Cl)ccc1n2CN1CCOCC1` the Potency was inconclusive [inhibitor, partial curve]. For `C=CCOC(=O)N[C@@H](Cc1ccccc1)/C(C(=O)OC)=C(\C)NCc1ccccc1`, the “activity change, negative = inhibition” value was inactive: 0.117%. With `CCOC(=O)c1ccc(N/N=C/c2cc(Br)cc([N+](=O)[O-])c2O)cc1` the Potency was inconclusive [inhibitor, full curve]. In the case of `O=C(NCc1cccnc1)c1cc(Sc2ccc(F)cc2F)nc2ccccc12`, the Potency is reported as inconclusive [inhibitor, single point]. For `COc1ccc(C/C(C)=N/NC(=S)Nc2ccccc2F)cc1`, the Potency was inconclusive [activator, partial curve]. In the case of `CC(NCc1ccc(-c2ccccc2)cc1)C(O)c1ccccc1` (stereo not drawn), the Potency is reported as inconclusive [inhibitor, single point]. With `O=C(NCCCn1ccnc1)c1ccc(N2CCCCCC2)c([N+](=O)[O-])c1` the Potency was inconclusive [inhibitor, partial curve]. For `C[C@@H](CN1c2ccccc2Sc2ccccc21)N(C)C`, the “activity change, negative = inhibition” value was inactive: -1.98% [at 25.7 µM]. In the case of `COC(=O)[C@@]1(Cc2ccc(OC)cc2)[C@@H]2[C@@H](CC(=O)[C@H]2CC(=O)C(=O)N(C)C)CN1C(=O)c1ccccc1`, the Potency is reported as “inactive”. In the case of `Cc1ccc(-n2c(C)cc(C(=O)COc3c(CO)cc(F)cc3CO)c2C)cc1C`, the Potency is reported as inconclusive [inhibitor, single point]. With `CCN1/C(=C/c2cc[n+](C)cc2)C=Cc2cc(C)ccc21` the Potency was active: 15.8 µM. In the case of `CC(C)(C)C(=O)NC(=S)NNC(=O)c1sc2ccccc2c1Cl`, the Potency is reported as active: 12.6 µM. In the case of `CN(C)S(=O)(=O)c1cc(NC(=O)c2cc(=O)[nH]c3ccccc23)ccc1Cl`, the Potency is reported as inconclusive [inhibitor, single point]. For `CCN(CC)c1ccc(/C=C2\CCC(/C=C(\C#N)C(=O)Nc3ccccc3F)=C2N2CCOCC2)cc1`, the Potency was inconclusive [inhibitor, partial curve]. In the case of `COc1ccc(COc2ccccc2C(=O)NCc2ccccc2)cc1F`, the Potency is reported as inconclusive [inhibitor, single point]. With `COc1ccc(NS(=O)(=O)c2ccc(C(=O)N3CCN(Cc4ccccc4)CC3)cc2)cc1` the Potency was inconclusive [inhibitor, single point]. For `COCCOC(=O)C1=C(N)OC2=C(C(=O)CCC2)C1c1cccnc1` (stereo not drawn), the Potency was inconclusive [inhibitor, single point]. In the case of `O=C1N/C(=N\c2ccccn2)SC1Cc1ccccc1Cl` (stereo not drawn), the Potency is reported as inconclusive [activator, partial curve]. With `Cc1c2ccccc2nc2c(F)c(N(C)C)c(F)c(F)c12` the Potency was inconclusive [activator, partial curve]. With `COCCCN(CC(=O)O)S(=O)(=O)c1ccccc1` the Potency was inconclusive [inhibitor, partial curve]. For `Cc1cc(C)n(-c2ccc(C(=O)Nc3cccc([N+](=O)[O-])c3)cc2)n1`, the Potency was inconclusive [inhibitor, single point]. For `NC(=O)C1CCN(C(=O)c2ccc3nc(N4CCCCC4)sc3c2)CC1`, the Potency was inconclusive [inhibitor, full curve, poor fit]. In the case of `CCOC(=O)CCCc1ccc(/C(C)=N/NC(=S)NC)cc1`, the Potency is reported as inconclusive [inhibitor, single point]. For `Nc1nc(Nc2cccc(Cl)c2)nc(NCc2ccco2)c1[N+](=O)[O-]`, the Potency was inconclusive [inhibitor, single point]. For `CCCCCc1cc(=O)oc2c(C(CCN3CCCCC3)c3cc(OC)c(OC)c(OC)c3)c(OC)cc(OC)c12` (stereo not drawn), the Potency was inconclusive [inhibitor, single point]. For `COc1ccccc1/C=C/C=N/N1CCN(Cc2ccccc2)CC1`, the Potency was inconclusive [inhibitor, partial curve]. For `CC(C)OCCCNc1nc2c(-c3ccccc3)nnn2c2ccccc12`, the Potency was inconclusive [inhibitor, partial curve]. With `Cc1ccc(CSCCNC(=O)CN(c2cccc([N+](=O)[O-])c2)S(C)(=O)=O)cc1` the Potency was inconclusive [inhibitor, single point]. In the case of `CS(=O)(=O)N(CC(=O)NCc1ccccc1Cl)c1cccc([N+](=O)[O-])c1`, the Potency is reported as inconclusive [activator, partial curve, poor fit]. In the case of `CCCCOC(=O)Nc1ccc(N(C)C)cc1`, the Potency is reported as inconclusive [inhibitor, single point]. For `Cc1ccc2oc(/N=C(\N)NC(=O)C3CC3)nc2c1`, the Potency was inconclusive [inhibitor, partial curve]. In the case of `Cc1cccc(Nc2nc(N)c([N+](=O)[O-])c(N3CCC(C)CC3)n2)c1`, the Potency is reported as inconclusive [inhibitor, single point]. With `CCOC(=O)c1cc(-c2ccccc2)sc1NC(=O)CSc1nnc(N)s1` the Potency was inconclusive [inhibitor, single point]. With `Fc1ccc(C2=NN(c3ccccc3)C(c3ccco3)C2)cc1` (stereo not drawn) the Potency was inconclusive [activator, partial curve]. With `COc1cc(C=O)cc(Br)c1OCC(N)=O` the Potency was inconclusive [activator, full curve, poor fit]. In the case of `O=C(N/N=C/c1cn(Cc2ccccc2)c2ccccc12)c1cccnc1`, the Potency is reported as inconclusive [inhibitor, single point]. In the case of `COC(=O)C1=CN(Cc2ccc(OC)cc2)C=C(C(=O)OC)C1c1cccs1`, the Potency is reported as inconclusive [activator, single point]. For `Oc1ccc(COCc2ccccc2)c2cccnc12`, the Potency was inconclusive [inhibitor, single point]. For `COc1cccc(-c2cncnc2NCc2ccccc2)c1`, the “activity change, negative = inhibition” value was inactive: 36%. For `Cc1c(N=N/C(C(=O)Nc2ccccc2)=C(/O)c2ccccc2)c(=O)n(-c2ccccc2)n1C`, the Potency was inconclusive [inhibitor, partial curve]. For `Cc1cc(-c2n[nH]c(=S)n2/N=C/C(Br)=C/c2ccccc2)n[nH]1`, the Potency was inconclusive [inhibitor, single point]. In the case of `O=C(Nc1nnc(-c2ccc(F)cc2)o1)c1cc(Cl)sc1Cl`, the “activity change, negative = inhibition” value is reported as inactive: -3.16%. For `Cc1cc(N/N=C/c2ccc(N(C)C)cc2)nc(NCc2ccccc2)n1`, the “activity change, negative = inhibition” value was inactive: -19.9% [at 57.5 µM]. In the case of `C[C@H]1C2=C3C(C[C@H]4C(=O)N(c5ccccc5)C(=O)[C@H]4[C@H]3[C@@]3(Cc4ccccc4)C(=NCCc4c[nH]c5ccccc45)OC(=O)N3C2=O)[C@H]2C(=O)N(c3ccccc3)C(=O)[C@H]21` (stereo partly drawn), the “activity change, negative = inhibition” value is reported as inactive: -6.47%. With `O=C(c1ccc(-c2ccccc2)cc1)N1CCN(c2ccccn2)CC1` the Potency was inconclusive [inhibitor, single point]. For `CN(C)c1ccc(/C=C/c2ccc3c4ccccc4ccc3[n+]2-c2ccccc2)cc1`, the Potency was active: 25.1 µM. For `COc1ccc(N=C2S/C(=C\c3ccc(OC(C)C(=O)O)c(OC)c3)C(=O)N2CCc2c[nH]c3ccccc23)cc1` (stereo not drawn), the Potency was inconclusive [inhibitor, single point]. With `c1csc(CNc2ncnc3ccc(-c4ccc5c(c4)OCO5)cc23)c1` the Potency was inconclusive [inhibitor, single point]. With `COCCNC(=O)c1ccccc1NC(=O)c1cccc([N+](=O)[O-])c1C` the Potency was inconclusive [activator, full curve, poor fit]. With `Nc1c2c(nc3ccccc13)CCCC2` the Potency was inconclusive [activator, partial curve]. In the case of `Nc1nn(-c2ccccc2)c(N)c1N=Nc1ccccc1F`, the Potency is reported as inconclusive [inhibitor, single point]. In the case of `COc1ccc(-c2nc(NC(=O)c3ccc(OCC(=O)N4CCOCC4)c(OC)c3)sc2C)cc1`, the Potency is reported as inconclusive [inhibitor, single point]. For `Clc1ccc(-c2csc(=Nc3cccnc3)n2CCCn2ccnc2)cc1Cl`, the Potency was inconclusive [inhibitor, partial curve, poor fit]. In the case of `CN(C)c1ccc(/C=N/N=C(N)N)cc1[N+](=O)[O-]`, the Potency is reported as inconclusive [inhibitor, single point]. For `Clc1ccc2nc(-c3ccccc3)nc(C(Cl)Cl)c2c1`, the Potency was inconclusive [inhibitor, single point].
